Values joined by “and” are separate entries in the source; they are usually repeats but may differ in a detail not shown here. Identical values can stand only once. About 4,000 (1%) of roughly 390,000 compounds were called active. Inconclusive means that the source gave no clear call. Such entries were picked first, then a sample of the others. Calls come from the whole dose curve; as a rule, active = well fitted inhibition curve with a large enough effect; inconclusive = small, poorly fitted or top-dose-only effect; inactive = no such curve, though single readings can be large or run the other way. A potency beside an inconclusive call is a rough fit, not a confirmed value.
What follows are molecules tested against Thioredoxin reductase 1, cytoplasmic (Rattus norvegicus) (UniProt O89049) (assay: qHTS Assay for Inhibitors of Mammalian Selenoprotein Thioredoxin Reductase 1 (TrxR1): qHTS). Conditions: recombinant rTrxR1, NADPH fluorescence consumption, selenite substrate; series mostly up to 114 µM.
Sequence of UniProt O89049 (O89049 whole entry, looked up): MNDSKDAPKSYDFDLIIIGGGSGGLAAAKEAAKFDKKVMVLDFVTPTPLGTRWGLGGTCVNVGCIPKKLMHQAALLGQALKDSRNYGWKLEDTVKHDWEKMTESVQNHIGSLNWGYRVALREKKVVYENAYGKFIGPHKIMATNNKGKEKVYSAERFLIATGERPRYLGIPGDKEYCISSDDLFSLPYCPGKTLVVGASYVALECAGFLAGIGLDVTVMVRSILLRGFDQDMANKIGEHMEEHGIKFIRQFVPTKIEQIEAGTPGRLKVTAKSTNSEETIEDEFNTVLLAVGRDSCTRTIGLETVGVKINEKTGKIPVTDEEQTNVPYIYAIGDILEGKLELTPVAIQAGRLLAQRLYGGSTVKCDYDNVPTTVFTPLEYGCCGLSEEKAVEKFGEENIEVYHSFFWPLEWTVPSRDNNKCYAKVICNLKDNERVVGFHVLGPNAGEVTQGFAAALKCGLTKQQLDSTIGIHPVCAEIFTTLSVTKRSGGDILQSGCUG
How it was run: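 Rat TrxR1 (90 nM in the dispensed reagent) was pre-reduced with 400 uM NADPH for 5 min at room temperature, then incubated with compound for 15 min. After 400 uM selenite was added, NADPH fluorescence (Ex 340/Em 450 nm) was followed for 8 min.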
In the case of CN1CCN(C(=O)c2ccc3c(Cl)c4c(nc3c2)CCCC4)CC1, the Potency is reported as inconclusive: 70.8 µM [inhibitor, single point].
In the case of CCOC(=O)C1CCCN(C2CC(=O)N(c3cccc(C(F)(F)F)c3)C2=O)C1 (centres undefined), the Potency is reported as inconclusive: 35.5 µM [inhibitor, single point].
With CCC(C(=O)O)N1C(=O)/C(=C/c2cccn2C)SC1=S (centres undefined) the Potency was “inactive”.
With COc1ccc(N2C(N)=C(C#N)C(c3cccnc3)C3=C2CC(C)(C)CC3=O)cc1 (centres undefined) the Potency was inconclusive: 25.1 µM [inhibitor, single point].
In the case of Cc1ccc(NC(=O)c2ccc(NCCN)c([N+](=O)[O-])c2)cc1, the Potency is reported as “inactive”.
With COc1ccc(CCCc2nnc(SCC(=O)Nc3cc(F)ccc3C)o2)cc1 the Potency was “inactive”.
With Cc1cc(C)n(-c2ccc(C(=O)Nc3ccc(S(=O)(=O)N(C)C)cc3)cc2)n1 the Potency was “inactive”.
In the case of CN(C)C(=S)Nc1ccc2c(c1)OCO2, the Potency is reported as “inactive”.
For COc1ccc(CCN(C)c2ccc(S(=O)(=O)N3CCCC3)cc2[N+](=O)[O-])cc1OC, the Potency was “inactive”.
With Cc1cc2c(=O)n(Cc3ccco3)c(SCC(=O)NCc3ccco3)nc2s1 the Potency was inconclusive: 12.6 µM [inhibitor, partial curve].
In the case of CCOc1ccc(CNC(=O)c2ccc3c(Cl)c4c(nc3c2)CCCC4)cc1, the Potency is reported as “inactive”.
With O=C(CCl)Nc1cc(-c2ccccc2)nn1-c1ccccc1 the Potency was active: 22.4 µM.
With Cc1ccc(N2C(=O)CS/C2=C(\C(Cl)=C(Cl)Cl)[N+](=O)[O-])cc1 the Potency was active: 31.6 µM.
COc1ccc(C(C)=O)cc1COC(=O)CNC(=O)c1ccc(Cl)cc1 was tested, and the Potency was inconclusive: 17.8 µM [inhibitor, full curve].
With O=C(c1ccco1)N1CCN(c2ccc([N+](=O)[O-])cc2Cl)CC1 the Potency was inconclusive: 89.1 µM [inhibitor, single point].
For CCOC(=O)c1ccccc1NC(=O)c1cn(CC(C)C)c(=O)c2cc(OC)c(OC)cc12, the Potency was “inactive”.
For Nc1ccc(O)cc1, the Potency was active: 14.1 µM.
In the case of COc1ccc(Nc2cc(C)c3cc(NC(=O)c4ccccc4Cl)ccc3n2)cc1, the Potency is reported as “inactive”.
With Cc1ccc(C)n1-c1ccc(N2CCOCC2)cc1 the Potency was inconclusive: 70.8 µM [inhibitor, single point].
For CC1CC(C)(C)N2C(=O)C(=C(C#N)C#N)c3cccc1c32 (centres undefined), the Potency was inconclusive: 3.16 µM [inhibitor, partial curve, poor fit].
For NC(=O)CN1C(=O)NC2(CCOc3ccccc32)C1=O (centres undefined), the Potency was “inactive”.
With COC(=O)[C@@H](Cc1c[nH]c2ccccc12)NC(=O)c1ccc2c(c1)OCO2 the Potency was “inactive”.
For O=c1c2ccccc2nc(/C=C/c2cccc(Br)c2)n1CCCO, the Potency was “inactive”.
CC(=O)Nc1ccc(S(=O)(=O)Nc2ccc(C)c([N+](=O)[O-])c2)cc1 was tested, and the Potency was “inactive”.
Cc1ccc(C)c(OCc2cc(C(=O)NC3CCN(Cc4ccccc4)CC3)no2)c1 was tested, and the Potency was inconclusive: 8.91 µM [inhibitor, partial curve].
COc1cccc(NC(=O)CSc2nc(=O)n(Cc3cccnc3)c3c2CCC3)c1 was tested, and the Potency was “inactive”.
With O=Cc1ccc(OC(=O)c2cc(Cl)nc3ccccc23)cc1 the Potency was inconclusive: 79.4 µM [inhibitor, single point].
With Cc1cc(SCNC(=O)c2ccccc2)nc(C(C)C)n1 the Potency was inconclusive: 7.94 µM [inhibitor, partial curve].
With CCCS(=O)(=O)c1nc(S(=O)(=O)c2ccc(C)cc2)c(N2CC(C)OC(C)C2)s1 (centres undefined) the Potency was inconclusive: 31.6 µM [inhibitor, partial curve].
For N#CC1=C(N)NC(SCC(=O)c2ccc(Br)cc2)=C(C#N)C12CCCCC2, the Potency was inconclusive: 89.1 µM [inhibitor, single point].
In the case of CN(CC(=O)NCCc1ccccc1)Cc1ccco1, the Potency is reported as inconclusive: 39.8 µM [inhibitor, partial curve].
CN1C(=O)CC(P(=O)(c2ccccc2)c2ccccc2)N(C)C1=O (centres undefined) was tested, and the Potency was “inactive”.
For COc1ccc(F)cc1S(=O)(=O)NCC(c1ccco1)S(=O)(=O)c1cccs1 (centres undefined), the Potency was inconclusive: 3.55 µM [inhibitor, partial curve, poor fit].
In the case of CCc1cc[n+](CC(=O)Nc2ccc(Cl)cc2Cl)cc1, the Potency is reported as “inactive”.
In the case of COc1ccc(-n2c(Cc3cccn3C)nnc2SCC(=O)NCc2ccco2)cc1, the Potency is reported as inconclusive: 12.6 µM [inhibitor, partial curve].
O=C(/C=C\c1ccco1)NC(=S)Nc1ccccc1O was tested, and the Potency was inconclusive: 56.2 µM [inhibitor, single point].
In the case of O=C(Cc1cc(=O)[nH]c(=O)[nH]1)NCCN1CCOCC1, the Potency is reported as inconclusive: 22.4 µM [inhibitor, partial curve].
In the case of CCOC(=O)c1c(C)oc2c1c(C(c1cccnc1)N1CCOCC1)c(O)c1ccccc12 (centres undefined), the Potency is reported as active: 11.2 µM.
CCOC(=O)c1cc(OC(=O)c2ccccc2F)n(-c2ccccc2)n1 was tested, and the Potency was “inactive”.
With CC1Sc2n(c3ccccc3[n+]2C)N=C1c1ccccc1 (centres undefined) the Potency was “inactive”.
For O=C(CSc1nc2ccccc2c(=O)[nH]1)Nc1ccc([N+](=O)[O-])cc1, the Potency was “inactive”.
CC(=O)c1cc(C(=O)Nc2ccc3ccccc3c2)c(C)o1 was tested, and the Potency was “inactive”.
With Cc1ccc2nc(-c3ccc(C)c(NC(=O)COc4ccc(Cl)cc4)c3)oc2c1 the Potency was “inactive”.
In the case of Cc1cccc(C)c1NC(=S)NC(=O)c1ccc(Br)o1, the Potency is reported as inconclusive: 44.7 µM [inhibitor, partial curve].
With O=[N+]([O-])c1ccc(-c2ccn[nH]2)o1 the Potency was active: 3.55 µM.
CCOc1ccccc1NC(=O)c1nc(S(=O)(=O)Cc2cccc(C)c2)ncc1Cl was tested, and the Potency was active: 3.16 µM and active: 7.08 µM.
For O=C(NC1CCCC1)c1ccc(CSCc2ccccc2F)o1, the Potency was inconclusive: 0.631 µM [inhibitor, full curve, poor fit].
With Nc1c(N(CCC2=CCCCC2)C(=O)c2ccc([N+](=O)[O-])o2)c(=O)[nH]c(=O)n1Cc1ccccc1 the Potency was inconclusive: 50.1 µM [inhibitor, partial curve, poor fit].
In the case of Cc1cccc(N2CC(C(=O)Nc3nnc(SCCC4OCCO4)s3)CC2=O)c1 (centres undefined), the Potency is reported as inconclusive: 44.7 µM [inhibitor, partial curve].

From PubChem BioAssay AID588453 (National Center for Advancing Translational Sciences (NCATS), 2011)
Note: nearly all actives have a fitted effect of over 65% in size.
Potency is the fitted concentration of half-maximal effect; tags give direction and shape of the fitted curve.
